Molecular target: Hs-Ubc9 (human E2 conjugating enzyme Ubc9), untagged (human, UniProt P63279)
Assay: ITC

Sequence of UniProt P63279 (P63279 whole entry): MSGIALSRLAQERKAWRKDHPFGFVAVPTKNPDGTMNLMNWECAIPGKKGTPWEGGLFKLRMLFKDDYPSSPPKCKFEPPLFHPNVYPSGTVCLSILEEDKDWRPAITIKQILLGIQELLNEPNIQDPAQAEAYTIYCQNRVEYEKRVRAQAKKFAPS

Kd: 4.18 ± 0.2 µM
B1: Hs-SUMO1 (human SUMO1), untagged (natural protein)
chain: not shown

— doi:10.1101/2021.08.18.456755 (bioRxiv, 2021)
